Where a chain is given by its changes, count along the chain named.
T1: human FcγRIIβ (human, UniProt P31994 46-217, limits assumed)
T1 construct: also called FcγRIIb; R2b
T1 sequence (looked up): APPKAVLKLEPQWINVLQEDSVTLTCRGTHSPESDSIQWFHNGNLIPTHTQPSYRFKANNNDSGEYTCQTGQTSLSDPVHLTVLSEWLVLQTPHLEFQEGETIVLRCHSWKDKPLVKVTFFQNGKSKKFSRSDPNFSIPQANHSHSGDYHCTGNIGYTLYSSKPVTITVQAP

B1: TA335 (antibody, human IgG1, lambda)
heavy: EVQLLESGGGLVQPGGSLRLSCAASGFTFSDYYMSWVRQAPGKGLEWVSVISNSGGSTYYTDSVKGRFTISRDNSKNTLYLQMNSLRAEDTAVYYCTKDIGMTYFDYWGQGTLVTVSS[human IgG1 constant region with G237E P238E (EU numbers) left out here]
light: QSVLTQPPSASGAPGQRVTISCSGSYSNIGNQYVSWYQQLPGTAPKLLIYLNSQRPSGVPDRFSGSKSGTSASLAISGLQSEDEADYYCAAWDDLNVWVFGGGTKLTVLGQPKAAPSVTLFPPSSEELQANKATLVCLISDFYPGAVTVAWKADSSPVKAGVETTTPSKQSNNKYAASSYLSLTPEQWKSHRSYSCQVTHEGSTVEKTVAPTECS
B2: TA319 (antibody, human IgG1, lambda)
heavy: B1 heavy with G10A, L11F, M83I
light: B1 light with Q32S
B3: TA333 (antibody, human IgG1, lambda)
heavy: B1 heavy
light: B1 light with N31S, Q32S
B4: ARB58 (antibody, human IgG1, kappa)
heavy: EVQLVESGGGLVQPGRSLRLSCAASGFNFGAFAMHWVRQAPGKGLEWVSAINQGGSEVDYADSVEGRFTISRDNAKNSLYLQMNSLRAEDTAVYYCARDPGLPVSAFDIWGLGTMVTVSSASTKGPSVFPLAPSSKSTSGGTAALGCLVKDYFPEPVTVSWNSGALTSGVHTFPAVLQSSGLYSLSSVVTVPSSSLGTQTYICNVNHKPSNTKVDKKV[human IgG1 Fc with L234A L235A G237A (EU numbers) left out here]
light: DIQMTQSPSSLSASVGDRVTITCRASQDISNWLAWYQQKPGKAPKLLIYDASSLVSGVPSRFSGSGSGTDFTLTISSLQPEDVATYYCHQIYDTPPTFGGGTKVEIKRTVAAPSVFIFPPSDEQLKSGTASVVCLLNNFYPREAKVQWKVDNALQSGNSQESVTEQDSKDSTYSLSSTLTLSKADYEKHKVYACEVTHQGLSSPVTKSFNRGEC
notes: copies: 2 + 2
B5: ARB67 (antibody, human IgG1, kappa)
heavy: EVQLVESGGGLVQPGRSLRLSCAASGSTLSSYGMHWVRQAPGKGLEWVSAISYDASTIDYADSVEGRFTISRDNAKNSLYLQMNSLRAEDTAVYYCASEYGLAFDQWGQGTLVTVSSASTKGPSVFPLAPSSKSTSGGTAALGCLVKDYFPEPVTVSWNSGALTSGVHTFPAVLQSSGLYSLSSVVTVPSSSLGTQTYICNVNHKPSNTKVDKKV[human IgG1 Fc with L234A L235A G237A (EU numbers) left out here]
light: DIQMTQSPSSLSASVGDRVTITCRASQGIGSYLAWYQQKPGKAPKLLIYEASRLESGVPSRFSGSGSGTDFTLTISSLQPEDVATYYCQQGYNAPITFGGGTKVEIKRTVAAPSVFIFPPSDEQLKSGTASVVCLLNNFYPREAKVQWKVDNALQSGNSQESVTEQDSKDSTYSLSSTLTLSKADYEKHKVYACEVTHQGLSSPVTKSFNRGEC
notes: copies: 2 + 2

Experiments:
human FcγRIIβ [1] = target: T1, human FcγRIIβ; assay: ratio of KD on FcγRIIα R131 to KD on FcγRIIβ, Table 29
Cyno PD-1 [2] = target: T2, Cyno PD-1 (cyno); assay: BLI (Octet RED96), antibody captured on anti-human IgG Fc biosensors, PD-1 titrated; steady state (footnote *)
T2 construct: also called cynomolgus PD-1; cyPD1

[3] = target: PD-1 (in the reporter cells of the PD-1 agonism assay) (Homo sapiens (Human), UniProt Q15116 25-288); assay: cell-based or functional assay
Recombinant human PD-1 = target: T3, Recombinant human PD-1 (human, UniProt Q15116 in part, limits assumed); assay: BLI (Octet RED96), antibody captured on anti-human IgG Fc biosensors, PD-1 titrated; 1:1 fit
Chain of Recombinant human PD-1 (Q15116 25-170 limits assumed): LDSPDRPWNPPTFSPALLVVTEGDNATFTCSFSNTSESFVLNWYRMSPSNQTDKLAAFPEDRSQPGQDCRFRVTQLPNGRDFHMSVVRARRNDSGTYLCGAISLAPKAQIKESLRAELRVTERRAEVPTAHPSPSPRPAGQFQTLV
T3 construct: Soluble recombinant analyte in BLI; also called huPD1
Description: (§1) Affinity to PD-1 was measured using biolayer inferometry. Test articles were diluted in assay buffer to a final concentration of 5 μg/mL. Recombinant human PD-1 was titrated. Test articles were captured on anti-human IgG Fc biosensors. Association was performed in wells with human PD-1. Dissociation was performed in wells with assay buffer. Kinetic parameters (kon and kdis) and equilibrium dissociation constant (KD) were calculated from a 1:1 Langmuir global Rmax fit model using the data analysis software of the Octet RED96 version 10.0.

FcγRI = assay: Fc receptor affinity, Table 29 (method for Fc receptors not told in Example 43)
Chain of FcγRI (P12314 16-292): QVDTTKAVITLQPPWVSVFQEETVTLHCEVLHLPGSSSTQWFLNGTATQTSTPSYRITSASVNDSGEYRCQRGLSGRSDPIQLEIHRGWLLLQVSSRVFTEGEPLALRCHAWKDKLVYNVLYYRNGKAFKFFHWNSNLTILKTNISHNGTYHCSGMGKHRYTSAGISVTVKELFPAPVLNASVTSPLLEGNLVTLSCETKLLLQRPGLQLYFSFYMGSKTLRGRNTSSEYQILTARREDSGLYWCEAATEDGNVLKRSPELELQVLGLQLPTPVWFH

human FcγRIIβ [4] = target: T1, human FcγRIIβ; assay: as above
Cyno PD-1 [5] = target: T2, Cyno PD-1; assay: BLI (Octet RED96), antibody captured on anti-human IgG Fc biosensors, PD-1 titrated; 1:1 fit
Description: as §1

human FcγRIIβ [6] = target: T1, human FcγRIIβ; assay: SPR, antibody captured on ProA/G HC30M chip, recombinant human FcγRIIβ injected (4 nM-5 uM); average steady state KD
Description: (§2) Example 52: The binding of anti-FcγRIIβ antibodies to human FcγRIIβ was evaluated. Antibodies were captured on ProA/G HC30M chip at 5 ug/mL, 1 ug/mL, and 0.2 ug/mL for 15 minutes. Six buffer injections were made over the chip followed by injections of increasing concentrations of recombinant human FcγRIIβ (4 nm-5 uM). The association was measured during each injection for 5 minutes and the dissociation was measured for 10 minutes post injection with buffer flow (1×HBSTE+ BSA).

human FcγRIIβ [7] = target: T1, human FcγRIIβ; assay: SPR, antibody captured on ProA/G HC30M chip, recombinant human FcγRIIβ injected (4 nM-5 uM); average kinetic KD
Description: as §2

Binder | R131/2b (fold) (human FcγRIIβ [1]) | Kd (Cyno PD-1 [2]) [nM] | Emax [3] | log EC50 [3] | Kd (Recombinant human PD-1) [nM] | koff (Recombinant human PD-1) [s⁻¹] | kon (Recombinant human PD-1) [M⁻¹ s⁻¹] | Affinity to RI relative to WT (FcγRI) [fold lower than WT] | Kd (human FcγRIIβ [4]) [nM] | Kd (Cyno PD-1 [5]) [nM] | koff (Cyno PD-1 [5]) [s⁻¹] | kon (Cyno PD-1 [5]) [M⁻¹ s⁻¹] | Kd (human FcγRIIβ [6]) [nM] | Kd (human FcγRIIβ [7]) [nM]
B1 | 2.8 | 737 | 1.8 | -8.2 | 152 | 0.011 | 69000 | > 10 | 2400 |  |  |  |  | 
B2 | 3.2 |  | 1.6 | -9.8 | 7.3 | 0.00057 | 72000 | > 10 | 2100 | 73.2 | 0.01 | 140000 |  | 
B3 | 3.5 |  | 1.8 | -9.9 | 7.5 | 0.00065 | 86000 | > 10 | 2300 | 97.9 | 0.0145 | 148000 |  | 
B4 |  |  |  |  |  |  |  |  |  |  |  |  | 180 | 207
B5 |  |  |  |  |  |  |  |  |  |  |  |  | 3500 | 3800
